{
  "source": "PubChem BioAssay AID588855",
  "about": "(National Center for Advancing Translational Sciences (NCATS), 2011)",
  "note": "Among all 410,000 compounds or so, about 5,000 (1.2%) were called active. The inconclusive results got no clear call from the source; some entries with a clear call stand among them for comparison. Calls come from the whole dose curve; as a rule, active = well fitted inhibition curve with a large enough effect; inconclusive = small, poorly fitted or top-dose-only effect; inactive = no such curve, though single readings can be large or run the other way. Potencies beside an inconclusive call are fits to weak or partial responses and may not hold up. Potency is the fitted concentration of half-maximal effect; tags give direction and shape of the fitted curve.",
  "data": [
    {"assay": "qHTS for Inhibitors of TGF-b; note: nearly all actives have a fitted effect of over 65% in size", "conditions": "HepG2 CAGA-GFP TGF-b/SMAD3 reporter, GFP fluorescence, 18 h, TGF-beta stimulated, 500 pg/mL final; series mostly up to 46.1 µM", "method_in_brief": "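Inhibition of TGF-beta-driven CAGA-GFP reporter expression in HEPG2 cells is measured by cellular GFP fluorescence after 18 h stimulation with 500 pg/mL recombinant TGF-beta in 1% FBS medium at 37 degrees C.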", "values": [
      {"compound": "COc1ccc(/C=C2/C(=O)N(Cc3ccccc3)N=C2C)cc1", "Potency": "inconclusive: 35.5 µM [inhibitor, single point]"},
      {"compound": "C=CCn1c(-c2cc(-c3ccc(C)cc3)nc3ccccc23)n[nH]c1=S", "Potency": "inactive"},
      {"compound": "CCOC(=O)c1c(C)sc2c1N(C(=O)CN(CC)CC)c1ccccc1S2", "Potency": "inactive"},
      {"compound": "O=C1CC(N(CCc2ccccc2)C(=S)Nc2ccccc2)C(=O)N1c1ccc(F)cc1", "note": "(centres undefined)", "Potency": "inconclusive: 35.5 µM [inhibitor, single point]"},
      {"compound": "C/C(=N\\NC(N)=S)C1C2C3CC4C5CC(C42)C1C53", "note": "(centres undefined)", "Potency": "inconclusive: 7.94 µM [inhibitor, partial curve, poor fit]"},
      {"compound": "CC(Cc1cccs1)NC(=O)Nc1ccc([N+](=O)[O-])cc1", "note": "(centres undefined)", "Potency": "inconclusive: 22.4 µM [inhibitor, single point]"},
      {"compound": "Cc1ccc(C(=O)CC2(O)C(=O)N(Cc3ccccc3)c3ccccc32)c(C)c1", "note": "(centres undefined)", "Potency": "inconclusive: 35.5 µM [inhibitor, single point]"},
      {"compound": "Cc1ccccc1Nc1c(-c2ccccn2)nc2ccccn12", "Potency": "inconclusive: 35.5 µM [inhibitor, single point]"},
      {"compound": "Cc1ccc2c(CC(=O)N(Cc3cccc(Cl)c3)C3CCS(=O)(=O)C3)coc2c1", "note": "(centres undefined)", "Potency": "inconclusive: 15.8 µM [inhibitor, partial curve, poor fit]"},
      {"compound": "CCOC(=O)C1CCCN(C(=O)c2ccc(NC(=O)c3nsc4ccccc34)cc2)C1", "note": "(centres undefined)", "Potency": "inactive"},
      {"compound": "C=CCn1c(=NC(=O)c2cccc(N3C(=O)CCC3=O)c2)sc2cccc(OC)c21", "Potency": "inactive"},
      {"compound": "COc1ccc(S(=O)(=O)N2CCc3ccccc32)cc1C(=O)Nc1ccc(NC(C)=O)cc1", "Potency": "inconclusive: 10 µM [inhibitor, single point]"},
      {"compound": "C/C(=N\\Nc1nc2c(s1)CCCC2)c1ccc(Cl)cc1", "Potency": "inconclusive: 0.112 µM [inhibitor, full curve, poor fit]"},
      {"compound": "COc1ccc(OC)c(/C=C/c2ccc3ccccc3n2)c1", "Potency": "inactive"},
      {"compound": "CCCc1nn(C)c2c1C(c1ccncc1)C(C#N)=C(N)O2", "note": "(centres undefined)", "Potency": "inactive"},
      {"compound": "O=C(CCn1cnc2onc(-c3ccc(F)cc3)c2c1=O)N1CCN(c2ccccc2F)CC1", "Potency": "inconclusive: 15.8 µM [inhibitor, single point]"},
      {"compound": "COc1ccc(N=C2S/C(=C\\c3ccc(C)s3)C(=O)N2CC(C)C)cc1", "Potency": "inactive"},
      {"compound": "COc1ccccc1N1CC(O)=C(c2nc3ccccc3s2)C1=N", "Potency": "inconclusive: 35.5 µM [inhibitor, single point]"},
      {"compound": "Cc1cccc(/C=C/c2onc(C)c2S(=O)(=O)N2CCC(C(=O)N3CCCCCC3)CC2)c1", "Potency": "inconclusive: 35.5 µM [inhibitor, single point]"},
      {"compound": "CC(=O)Nc1c(C)nn(-c2ccccc2)c1N1CCC(C(=O)Nc2cccc(C(F)(F)F)c2)CC1", "Potency": "inactive"},
      {"compound": "COc1ccccc1CC(=O)NC1CCCCCC1", "Potency": "inactive"},
      {"compound": "CC(C)(C)c1ccc(-c2nc(NCc3cccnc3)c3ccccc3n2)cc1", "Potency": "inconclusive: 35.5 µM [inhibitor, single point]"},
      {"compound": "COc1cccc(C(=O)N(CN2CCCC2=O)c2cccc(Cl)c2)c1", "Potency": "inconclusive: 35.5 µM [inhibitor, partial curve, poor fit]"},
      {"compound": "COc1cc2c(NC3CCN(C)CC3)nc(N3CCCN(C)CC3)nc2cc1OCCCCCN(C)C", "Potency": "inconclusive: 7.08 µM [inhibitor, partial curve, poor fit]"},
      {"compound": "CCCc1nn2c(=O)cc(COC(=O)c3ccco3)nc2s1", "Potency": "inconclusive: 0.0891 µM [inhibitor, full curve, poor fit]"},
      {"compound": "C=CCC[C@H](Cc1ccc(F)cc1)C(=O)OC[C@@H](Cc1c[nH]c2ccccc12)NC(=O)[C@@H](CC=C)CC(=O)N[C@@H](CO)Cc1ccccc1", "Potency": "active: 10 µM"},
      {"compound": "COc1cccc(-c2noc(C3CCCN(C(=O)Cc4ccccc4)C3)n2)c1", "note": "(centres undefined)", "Potency": "inconclusive: 35.5 µM [inhibitor, single point]"},
      {"compound": "Cc1ccc(O)c(NC(=O)c2cc(-c3cccs3)on2)c1", "Potency": "inactive"},
      {"compound": "COc1ccccc1-n1c(=O)oc2ccc(Cl)cc2c1=O", "Potency": "inconclusive: 20 µM [inhibitor, single point]"},
      {"compound": "N#Cc1c(N)nc(SCC(=O)NCCc2ccccc2)c(C#N)c1-c1cccs1", "Potency": "inconclusive: 1.26 µM [inhibitor, partial curve]"},
      {"compound": "COc1ccc(CN2CSC(=S)N(Cc3ccccc3)C2)cc1", "Potency": "active: 12.6 µM"},
      {"compound": "Cc1ccc(-c2nn(-c3ccccc3)cc2/C=N/NC(=O)CSc2nnc(C)n2-c2ccccc2)cc1", "Potency": "inconclusive: 35.5 µM [inhibitor, single point]"},
      {"compound": "S=C(NCc1ccco1)Nc1cccc(Cl)c1", "Potency": "inconclusive: 6.31 µM [inhibitor, single point]"},
      {"compound": "Cc1ccc(NC(=O)[C@@H](c2ccccc2)N2Cc3ccccc3C2=O)cc1F", "Potency": "inconclusive: 22.4 µM [inhibitor, single point]"},
      {"compound": "C/C(=N/NC(=O)C1CC1(c1ccccc1)c1ccccc1)c1ccco1", "note": "(centres undefined)", "Potency": "inconclusive: 3.98 µM [inhibitor, single point]"},
      {"compound": "COc1ccc(CC(=O)Nc2cccc(-c3nnc(-c4ccco4)o3)c2)cc1", "Potency": "inactive"},
      {"compound": "O=C(CN1C(=O)c2cccc([N+](=O)[O-])c2C1=O)N1CCN(S(=O)(=O)c2ccccc2)CC1", "Potency": "inactive"},
      {"compound": "O=C(Cc1ccc(F)cc1)Nc1ccc2[nH]ncc2c1", "Potency": "inconclusive: 5.62 µM [inhibitor, single point]"},
      {"compound": "OCCC1CN(CC2CCCCC2)CCN1CC1CCCCC1", "note": "(centres undefined)", "Potency": "inactive"},
      {"compound": "Cc1nc2c(c(C)nn2C(C)(C)C)c(C)c1CCC(=O)Nc1ccc(Br)cc1Br", "Potency": "inconclusive: 12.6 µM [inhibitor, partial curve, poor fit]"},
      {"compound": "CCCCC[n+]1ccn(C2=C([O-])c3ccccc3C(=O)/C2=N\\S(=O)(=O)c2ccc(Cl)cc2)c1", "Potency": "active: 3.16 µM"},
      {"compound": "COc1ccc(C(C(=O)NC(C)(C)C)N(C(=O)CCC(=O)Nc2cc(C)on2)c2cccc(F)c2)cc1", "note": "(centres undefined)", "Potency": "inactive"},
      {"compound": "CC1(C(=O)Nc2ccc3c(c2)OCO3)CCN1C(=O)CCc1cccs1", "note": "(centres undefined)", "Potency": "inactive"},
      {"compound": "CCOC(=O)C1CCN(C(=O)CNS(=O)(=O)c2ccc(Br)s2)CC1", "Potency": "inconclusive: 14.1 µM [inhibitor, partial curve, poor fit]"}
    ]}
  ]
}
